In paper PMC5308261:
No constants are given. Whether binding was seen depends on the method and setting. Binding seen in cells or lysates may run through a third protein. Some entries that bind do so weakly or less than the wild type. Where a sequence is shown, tags or fusion partners need not be part of it.

Amino acid sequences for entries named in this document (tags omitted). A change or cut given only in a name is not applied to a line headed by its entry.
UniProt P52129: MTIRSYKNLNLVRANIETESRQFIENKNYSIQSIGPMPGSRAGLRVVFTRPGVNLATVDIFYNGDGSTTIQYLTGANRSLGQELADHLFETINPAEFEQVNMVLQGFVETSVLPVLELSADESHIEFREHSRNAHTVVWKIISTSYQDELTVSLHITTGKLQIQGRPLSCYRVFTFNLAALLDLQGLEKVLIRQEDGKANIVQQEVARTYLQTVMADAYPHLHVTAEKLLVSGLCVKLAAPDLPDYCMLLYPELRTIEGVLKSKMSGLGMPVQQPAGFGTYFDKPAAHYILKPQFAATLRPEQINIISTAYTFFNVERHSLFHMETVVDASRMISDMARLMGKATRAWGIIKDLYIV

Assays:
[1] = molecular target: T1, His-tagged RNase HI (E. coli) (UniProt P0A7Y4); assay: pull-down; Ni-NTA agarose pull-down of His-RNase HI from 1 mg extract of ΔrnlAB ΔrnhA cells co-expressing a FLAG-tagged RnlA protein; overnight at 4 °C; washes with 10 mM Tris-HCl pH 7.5, 10 mM Mg(OAc)2, 30 mM KCl, 0.5 mM DTT, 20 mM imidazole; western blot anti-FLAG and anti-His; NRD also tested with RNase A treatment (Figure S1A)
T1 sequence: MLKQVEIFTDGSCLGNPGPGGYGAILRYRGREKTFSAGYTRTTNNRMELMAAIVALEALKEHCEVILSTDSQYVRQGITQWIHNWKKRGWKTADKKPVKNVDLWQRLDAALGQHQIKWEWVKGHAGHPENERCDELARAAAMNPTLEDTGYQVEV

[2] = molecular target: T2, His-tagged RnlB antitoxin (Escherichia coli K-12) (UniProt P52130); assay: pull-down; Ni-NTA agarose pull-down of His-RnlB from extract of ΔrnlAB ΔrnhA cells (no RNase HI) co-expressing a FLAG-tagged RnlA protein (Figure 5A; Figure 5B lane 6 with empty vector pQE80L'); western blot anti-FLAG and anti-His
T2 sequence: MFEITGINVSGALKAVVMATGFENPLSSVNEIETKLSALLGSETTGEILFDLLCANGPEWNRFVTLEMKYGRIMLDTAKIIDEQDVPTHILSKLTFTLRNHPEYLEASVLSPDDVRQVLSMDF

[3] = molecular target: T2, His-tagged RnlB antitoxin (Escherichia coli K-12); assay: pull-down; Ni-NTA agarose pull-down of His-RnlB from extract of ΔrnlAB cells (endogenous RNase HI present) co-expressing a FLAG-tagged RnlA protein; overnight at 4 °C; washes with 20 mM imidazole; western blot anti-FLAG and anti-His; NRD also tested for independence of RNA (Figure S1B)

binding [1] | Substance | binding [2] | binding [3]
no binding | FLAG-tagged DBD (Dmd-Binding Domain) of RnlA (from UniProt P52129 198-357) (domain or fragment) | binds | binds
binds | FLAG-tagged NRD (N-Repeated Domain) of RnlA (from UniProt P52129 91-197) (domain or fragment) | binds weakly | –
no binding | FLAG-tagged NTD (N-Terminal Domain) of RnlA (from UniProt P52129 1-90) (domain or fragment) | – | –
binds | FLAG-tagged NTD-NRD of RnlA (from UniProt P52129 1-197) (domain or fragment) | binds weakly | –
